Laboratory results taken from PubChem BioAssay AID485294 (National Center for Advancing Translational Sciences (NCATS), 2010).
In all, about 370,000 compounds went through this assay and about 150 (0.041%) were called active. Inconclusive results, whose numbers are uncertain, are shown with a selection of clear calls. The call rests on the fitted dose curve; in most records, active means well fitted inhibition curve with a large enough effect; inconclusive means small, poorly fitted or top-dose-only effect; inactive means flat fitted curve, though single readings scatter. No potency is given beside an inconclusive call; the fits are too rough. Peptide text beside a SMILES is read from it. * marks the point of attachment. Boc = CC(C)(C)OC(=O)*; OBn = c1ccc(CO*)cc1

target: Beta-lactamase (Escherichia coli (strain K12)) (UniProt P00811); assay: qHTS Inhibitors of AmpC Beta-Lactamase (assay with detergent); conditions: AmpC hydrolysis of nitrocefin, absorbance 480 nm, 0.01% Triton; activity change, negative = inhibition: at 114 µM (top of the series); further: nearly all actives have a fitted effect of over 25% in size;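 on activity change, negative = inhibition: 0% = no-compound wells and -100% = no-enzyme wells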
Method in brief: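 20 mM phosphate pH 7.0 + 0.01% (detergent screen) or 0.0001% Triton X-100; 5.3 nM AmpC reagent; cpd preinc 15 min RT; nitrocefin (800 uM stock) to start; A480 q20 s × 4 min; Activity was normalised to no-enzyme and no-compound control wells.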
Potency means the concentration at half of the fitted maximal effect; tags describe the fitted curve by direction and shape.

UniProt P00811, sequence (P00811 whole entry, looked up): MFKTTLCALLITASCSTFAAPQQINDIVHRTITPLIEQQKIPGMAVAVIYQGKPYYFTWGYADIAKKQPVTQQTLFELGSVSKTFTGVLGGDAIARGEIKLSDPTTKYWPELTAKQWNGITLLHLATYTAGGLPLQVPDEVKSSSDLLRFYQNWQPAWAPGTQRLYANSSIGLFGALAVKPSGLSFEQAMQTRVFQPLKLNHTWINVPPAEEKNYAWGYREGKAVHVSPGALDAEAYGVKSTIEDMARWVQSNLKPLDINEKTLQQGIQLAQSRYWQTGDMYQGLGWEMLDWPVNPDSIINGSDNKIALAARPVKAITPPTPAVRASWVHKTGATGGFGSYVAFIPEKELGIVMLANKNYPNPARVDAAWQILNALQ

SMILES | Potency | activity change, negative = inhibition
Cc1ccc(NC(=O)CC2OC(=O)c3ccccc32)cc1S(=O)(=O)N1CCOCC1 (stereo not drawn) | inconclusive [inhibitor, full curve, poor fit] | –
COc1ccc(CCCc2n[nH]c(=S)o2)c(C)c1 | inconclusive [inhibitor, single point] | –
O=C(CCCOc1ccc(Cl)cc1)N1CCCCCC1 | – | inactive: 10.4%
CC(C)(CO)NC(=O)c1ccc2nc(Cc3cccc(Cl)c3)oc2c1 | inconclusive [inhibitor, full curve, poor fit] | –
Cc1ccc(OC2CCN(C(=O)C3CCC(=O)N(C4CC4)C3)CC2)cc1 (stereo not drawn) | inconclusive [inhibitor, full curve, poor fit] | –
CCCC(=O)N/C(N)=N/c1nc(C)c2cc(C)ccc2n1 | – | inactive: 2.14%
COc1cccc(NC(=O)CSc2nccn2-c2cccc(OC)c2)c1 | – | inactive: -12.2%
CC(NC(=O)OC(C)(C)C)C(=O)NC(CCC(=O)OCc1ccccc1)C(N)=O (stereo not drawn) (Boc-Ala-Glu(OBn)-NH2; configuration not given here) | inconclusive [inhibitor, single point] | –
CC1=C(C(=O)N2CCCCC2)C2(CCC(C)CC2)OC1=O (stereo not drawn) | – | inactive: -9.29%
O=S(=O)(N1CCOCC1)N1CCN(c2ccc(F)cc2)CC1 | inconclusive [inhibitor, partial curve, poor fit] | –
COc1ccc(S(=O)(=O)N2CCOC23CCN(S(=O)(=O)c2ccccc2)CC3)cc1 | inconclusive [inhibitor, full curve, poor fit] | –
CC(=O)Oc1ccc(C2=NN(c3ccccc3)C(c3ccccc3)C2)cc1 (stereo not drawn) | – | inactive: 0.0745%
COc1ccc(N2CCN(C(CNS(=O)(=O)c3ccc4c(c3)OCCO4)c3ccco3)CC2)cc1 (stereo not drawn) | inconclusive [inhibitor, full curve] | –
COc1cccc(CN2CC(C(=O)NCc3ccc(C)o3)CCC2=O)c1 (stereo not drawn) | inconclusive [inhibitor, full curve, poor fit] | –
CCOc1ccc(-c2cc(NC(=O)Cn3ncc4c3-c3ccccc3OC4)on2)cc1OCC | inconclusive [inhibitor, single point] | –
NC(=O)CC(NC(=O)Cc1cccc2ccccc12)c1ccc(NCCc2ccc(F)cc2)c([N+](=O)[O-])c1 (stereo not drawn) | – | inactive: -3.73%
CSCC[C@H](NS(=O)(=O)c1ccc(C)cc1)C(=O)N1CCC(C(=O)N[C@@H](Cc2ccc(O)cc2)C(=O)O)CC1 | inconclusive [inhibitor, full curve] | –
O=CN(/C=C1\Sc2ccccc2C1=O)Cc1ccccc1 | – | inactive: 5.23%
COc1ccccc1C(C)NCC(=O)NCc1ccc(C)cc1 (stereo not drawn) | inconclusive [inhibitor, full curve, poor fit] | –
COc1ccc(OC)c(C(C)NC(=O)Nc2ccccc2)c1 (stereo not drawn) | inconclusive [inhibitor, partial curve] | –
Cc1cc(C(=O)Nc2ncc(C)s2)c2ccccc2n1 | inconclusive [inhibitor, full curve] | –
COc1ccc(-c2nnc(NC(=O)CSc3ccc(C)cc3)s2)cc1OC | inconclusive [inhibitor, full curve, poor fit] | –

SMILES | Potency | activity change, negative = inhibition
COc1ccc2[nH]c(C(=O)O)c(NS(=O)(=O)c3ccc(C)c(C)c3)c2c1 | inconclusive [inhibitor, full curve, poor fit] | –
COC(=O)C1=C(c2ccc(OCc3ccccc3)cc2)C[C@@H]2CC[C@H]1N2C(=O)NCc1ccc(OC)c(OC)c1 | – | inactive: -5.85%
CCOc1ccc2c(c1)C(C)=CC(C)(C)N2C(=O)Nc1ccccc1 | inconclusive [inhibitor, full curve, poor fit] | –
Cn1c(SCc2c(Cl)cccc2Cl)nc(C(F)(F)F)cc1=O | inconclusive [inhibitor, full curve, poor fit] | –
COc1ccc(NC(=O)COC(=O)CNC(=O)c2cc(OC)c(OC)c(OC)c2)cc1 | – | inactive: -9.59%
N#Cc1ccc(Cl)cc1NC(=O)CNc1cccc(S(=O)(=O)N2CCCC2)c1 | inconclusive [inhibitor, full curve, poor fit] | –
O=C(CC1(CC(=O)N2CCOCC2)CCCC1)Nc1ccccc1 | inconclusive [inhibitor, full curve, poor fit] | –
Cc1ccc(-c2nn(CC(=O)NC3CCCCC3)c3c2cnc2ccc(F)cc23)cc1C | – | inactive: -4.83%
CCC(=O)Nc1ccc(S(=O)(=O)NCc2ccco2)cc1 | inconclusive [inhibitor, full curve, poor fit] | –
C=Cn1cc[n+](CC(=O)c2cccs2)c1 | – | inactive: -0.512%
COC(=O)C1=C(O)CSC1=Nc1cccc(C(F)(F)F)c1 | inconclusive [inhibitor, single point] | –
CSc1nnc2c3cc(C)ccc3n(Cc3ccccc3)c2n1 | inconclusive [inhibitor, full curve] | –
CCCCOc1ccc(-c2cc3c(=O)n(CC(=O)Nc4ccc(Cl)cc4Cl)ccn3n2)cc1 | – | inactive: -7.6%
COc1ccc(/C=C/C(=O)NC(=S)NNC(=O)Cc2cccs2)cc1OC | – | inactive: -4.79%
Cc1ccc(S(=O)(=O)c2c(N)n(Cc3ccco3)c3nc4ccccc4nc23)cc1 | inconclusive [inhibitor, full curve, poor fit] | –
O=C(O)CC1SC(=Nc2ccccc2)N(c2ccccc2)C1=O (stereo not drawn) | – | inactive: 8.43%
Cc1ccc2sc(N(CCCN(C)C)C(=O)c3ccc(S(=O)(=O)N4CCCCCC4)cc3)nc2c1C | inconclusive [inhibitor, partial curve] | –
COC(=O)c1nnn(-c2nonc2N)c1CN1CCc2ccccc21 | inconclusive [inhibitor, full curve] | –
Cc1cc(-c2ccccc2)cc(C)[n+]1Cc1ccccc1 | – | inactive: -13.9%
CC(C(=O)Nc1ccc2nccnc2c1)N1C(=O)C2C3C=CC(C3)C2C1=O (stereo not drawn) | inconclusive [inhibitor, full curve, poor fit] | –
Cc1nc(N)c(Cc2ccccc2F)c(N)n1 | inconclusive [inhibitor, full curve, poor fit] | –
